The whole screen tested about 1,200 compounds, of which about 10 (0.8%) were called active. Inconclusive results (about 4%) are left out. The call rests on the fitted dose curve; in most records, active means well fitted inhibition curve with a large enough effect; inconclusive means small, poorly fitted or top-dose-only effect; inactive means no such curve, though single readings can be large or run the other way. Some of the results follow.
Test: qHTS Assay to Find Inhibitors of Chronic Active B-Cell Receptor Signaling: Hit Validation in OCI-Ly3 Assay
Details: OCI-Ly3 IkB-luciferase reporter, Chroma-Glo luminescence, 4 h; series mostly up to 46.1 µM; activity change, negative = inhibition: at the top concentration
Outline: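 OCI-Ly3 cells in IMDM with 0.5% FBS get compound plus 80ng/ml doxycycline (dispensed solution), 4 hrs at 37C. Chroma-Glo read of green IkB-luc and red unfused luc; green/red ratio normalized to basal (0%) and 10 uM MG-132 (100%); concentration-response curves for each signal.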
On the % scale 0 is the no-effect control and ±100 the full control effect; potency means the concentration at half of the fitted maximal effect.

Activity change, negative = inhibition, inactive:
CN[C@H]1CCc2cc(OC)c(OC)c(OC)c2-c2ccc(N(C)CC(OC)OC)c(=O)cc21 -2.95%
C/C(=N\NC(N)=S)c1cc(-c2ccccc2)c(-c2ccccc2)s1 -0.95%
COc1ccc(CNC(=O)/C(C#N)=C/c2cccc(OC)c2OC)cc1 -1.25%
CCOC(=O)C(C)Oc1cccc2c(=O)n(CC(=O)NCc3ccccc3)ccc12 (stereo not drawn) -2.48%
CSc1nc(N(C)NC(=O)c2cccc(C)c2)c2ccccc2n1 -1.67%
Cn1c(=S)[nH]c2c(c1=O)C(C)(C)Cc1ccccc1-2 -1.63%
COc1ccc(N=N/C(=C\O)C(=O)c2ccco2)cc1 0.48%
COc1ccc(-c2cccc(-c3cc(=O)oc4cc(OC)cc(OC)c34)c2)cc1 -2.98%
Cc1ccccc1NC(=S)NCc1ccc2[nH]c3c(c2c1)CCCC3 -3.94%
Cc1cccc(N(C)S(=O)(=O)c2ccc(-c3cnc(C4CC4)o3)cc2)c1 -6.59%
C=CCNC(=S)N/N=C/c1ccc(C(F)(F)F)cc1 0.09%
COc1cc(OC)c2c(=O)cc(-c3cccnc3)oc2c1 -1.26%
COc1ccc(C(=O)c2cc([N+](=O)[O-])ccc2N2CCOCC2)cc1 -2.38%
C[C@H]1C[C@@H]2[C@H]([C@@H](O)C[C@@]3(C)[C@H]2CC[C@]3(O)C(=O)CO)[C@@]2(C)C=CC(=O)C=C12 -1.52%
Cc1cc(Cl)n2c(nc3ccccc32)c1C#N -0.275%
Cc1ccc(/C=N/NC(=O)c2cc(-c3ccncc3)nc3ccccc23)o1 -1.7%
Cc1ccc([N+](=O)[O-])cc1N=Nc1c(-c2ccc([N+](=O)[O-])cc2)[nH]n(C(N)=S)c1=O -0.101%
Cc1c(C(=O)Oc2cccc3cccnc23)oc2ccccc12 -1.68%
CCOc1cc(C(=O)N/N=C/C2CC=CCC2)cc(OCC)c1OCC (stereo not drawn) -1.59%
CC(/C=C/c1ccccc1)=N\NC(N)=S 1.46%
O=Cc1cc2ccccc2nc1SCc1ccc(Cl)c(Cl)c1 0.887%
COc1cccc(N2CC(O)=C(c3nc4ccccc4s3)C2=N)c1 -1.44%
CC1CCCCN1C(=S)NC(=O)c1cccs1 (stereo not drawn) -0.618%
CCOc1ccc(CCNC(=O)c2cc(=O)[nH]c3ccc(S(=O)(=O)N4CCCCC4C)cc23)cc1OCC (stereo not drawn) -1.29%
C=CCOc1ccc2ccccc2c1CNn1c(C)n[nH]c1=S 0.974%
O=C(N1CCN(c2ccccn2)CC1)N1c2ccccc2Sc2ccccc21 -2.7%
Cc1c(C(=O)N/N=C/c2ccc(Cl)cc2)[nH]c2ccc(Cl)cc12 -5.19%
COc1ccc2c(C#CCCO)c(-c3ccc(S(C)(=O)=O)cc3)sc2c1 0.142%
COc1cc(C(=O)N/N=C(\Cc2ncc[nH]2)c2ccccc2)cc(OC)c1OC -0.575%
N#CC1=C(N)C(C#N)(C#N)[C@H](c2cccnc2)[C@H]2CN(C(=O)OCc3ccccc3)CC=C12 -3.21%
N#Cc1c(NC(=O)CSc2ncn[nH]2)sc2c1CCCC2 -0.226%
N#Cc1c(NC(=O)/C=C/c2ccco2)sc2c1CCCC2 -2.35%
Cc1ncc(CO)c2c1Oc1nc(-c3ccccc3)nc(SCC(=O)N3CCOCC3)c1C2 -2.91%
COCCNC(=S)N/N=C(\C)c1ccc(Cl)s1 -1.77%
CC[C@]12c3[nH]c4cc(CCC(=O)N(C)C)ccc4c3CCN1C(=O)[C@@H](CC(=O)NCc1ccco1)C[C@@H]2C(=O)N1CCN(C(=O)c2ccco2)CC1 -1.86%
CCOc1c(OC)cccc1C1CC(=O)Nc2cc(OC)c(OC)cc21 (stereo not drawn) -0.312%
COc1ccc(Nc2nc(N)nc(CCl)n2)cc1 0.223%
CC1CCc2c(sc(NC(=O)CSc3nc(N)cc(=O)[nH]3)c2C(N)=O)C1 (stereo not drawn) -5.77%
CCOC(=O)c1c(C)[nH]c(C(=O)N/N=C/c2ccc(Br)cc2)c1C -0.24%
Cc1cc(C(=O)N/N=C/c2ccc(N(C)C)cc2)c2ccccc2n1 -0.328%
C/C(=N\NC(=O)C(C)n1nc(C)c([N+](=O)[O-])c1C)c1ccccc1O (stereo not drawn) -0.129%
C/C(=N/NC(=O)COc1cc(C)ccc1C(C)C)C(=O)O -0.653%
CCCCN(C(=O)CSc1nc2ccccc2n1CC)C1CCS(=O)(=O)C1 (stereo not drawn) 0.871%
CCCCn1c(-c2csc(C(C)C)c2)n[nH]c1=S -0.709%
COc1cc(/C=N/NC(=O)NC2CCCCC2)ccc1O -1.04%
CC1(C)Cc2c(sc3ncnc(NNC(=S)NCc4ccccc4)c23)CO1 -1.54%
Cc1ccc(C)c(-n2c3nc(=O)[nH]c(=O)c-3cc3cc([N+](=O)[O-])ccc32)c1 -7.4%
COc1cc2c(cc1[N+](=O)[O-])n(C(C)C)c(=O)n2C(C)C -0.244%
CCOc1c(Cl)cc(CNCC(C)C)cc1OC -0.569%
CC(C)COc1ccc(C(=O)Nc2cc(S(=O)(=O)N3CCOCC3)ccc2N2CCCC2)cc1 -0.217%
Cc1cccc(NC(=S)N/N=C/C(C)c2ccccc2)c1C (stereo not drawn) -2.93%
CCN(CC)c1ccc2c(C)c(CO)c(=O)oc2c1 -0.0824%
COc1ccccc1-c1cc(C(=O)Nc2cccnc2)no1 13.9%
O=C(NN=C(c1ccccc1)c1ccccn1)c1ccccc1 53%
Cc1cc(C(=O)OCC(=O)NCc2ccco2)c(C)n1-c1ccc(F)cc1 -5.11%
CCONC(=O)Nc1ccccc1[N+](=O)[O-] -0.444%
CCn1c(=O)c([N+](=O)[O-])c(Cl)c2ccccc21 -0.13%
O=C(Oc1ccc(F)cc1C(=O)/C=C/c1cccs1)c1cccc([N+](=O)[O-])c1 -4.26%
CCCCn1c(SCC(=O)c2cc(OC)ccc2OC)nc2cc(S(N)(=O)=O)ccc21 -0.544%
S=c1nc2ccccc2c2nc(-c3ccccc3Br)[nH]n12 83.2%
COc1cc(-c2noc(C)c2/C=C/c2ccc(N)cc2)cc(OC)c1OC -8.76%
Cc1c(CCC(=O)O)c(=O)oc2cc3oc4c(c3cc12)CCCC4 -2.09%
CC1=CC(C)(C)N2C(=O)C(=O)c3cc(OC(=O)c4ccco4)cc1c32 -12.4%
CC(C)n1c(SCC(=O)Nc2ccccc2)nc2c1c(=O)n(C)c(=O)n2C 0.254%
CCN1C(=O)c2cccc3c(S(=O)(=O)Nc4nc(C)cs4)ccc1c23 -5.86%
CC(C)N1C(=O)/C(=C\c2nc3ccccc3c(=O)[nH]2)c2ccccc21 -26.8%
O=S(=O)(Nc1cccc2ncccc12)c1cccs1 70%

Potency, active:
ClCc1nc2ccccc2c2ccccc12 13 µM
